Data: PubChem BioAssay AID493208 (National Center for Advancing Translational Sciences (NCATS), 2011)
The campaign covered roughly 44,000 compounds. About 340 (0.77%) were called active. Not shown: some 5% with an inconclusive outcome. Calls follow the shape of the dose curve; as a rule, active = well fitted inhibition curve with a large enough effect; inconclusive = small, poorly fitted or top-dose-only effect; inactive = flat fitted curve, though single readings scatter. Some of the results follow.

Assay: Acumen qHTS Assay for Inhibitors of the mTORC1 Signaling Pathway in MEF (Tsc2-/-, p53-/-) Cells: Sytravon;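 also: plate controls were DMSO for no effect and rapamycin for full effect; nearly all actives have a fitted effect of over 50% in size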
Details: phospho-rpS6 immunofluorescence/PI, 24 h; series mostly up to 38.3 µM; activity change, negative = inhibition: at the top concentration
How it was run: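 Tsc2-/-, p53-/- MEFs (empty-vector stable line) in DMEM + 10% FBS were treated with compounds 24 h at 37 degree Celsius, fixed, and immunostained for phospho-rpS6 (Alexa-488) with propidium iodide counterstain. Laser-scanning cytometry gave % positive cells, normalized against 7.5 nM rapamycin and DMSO.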
With `O=S(=O)(NCc1ccccc1Cl)c1ccc(-c2cnc(C3CC3)o2)cc1` the “activity change, negative = inhibition” value was inactive: -7.97%. In the case of `COc1ccc(-c2cn3cccnc3n2)cc1NC(=O)COc1ccccc1`, the “activity change, negative = inhibition” value is reported as inactive: 1.07%. In the case of `Cc1c(CC(=O)N2CCCCC2)c(=O)oc2cc3occ(C(C)(C)C)c3cc12`, the “activity change, negative = inhibition” value is reported as inactive: 1.76%. With `CCC1=Nc2cc(C(=O)NCc3ccccc3OC)ccc2Sc2ccc(Cl)cc21` the “activity change, negative = inhibition” value was inactive: 10.5%. For `COCCNc1ncnc2c1cnn2-c1cc(Cl)ccc1C`, the “activity change, negative = inhibition” value was inactive: 8.88%. With `Cc1cc(C)c2c(n1)SCC(=O)N2CC(=O)Nc1ccc(C)c(C)c1` the “activity change, negative = inhibition” value was inactive: -4.57%. With `Cc1ccc(OCC(=O)Nc2ccc(OCc3cc(=O)n4ccsc4n3)cc2)cc1` the “activity change, negative = inhibition” value was inactive: 1.76%. For `CCC(=O)N1c2ccccc2CC1C(=O)NCCc1ccccc1Cl` (stereo not given), the “activity change, negative = inhibition” value was inactive: 7.36%. In the case of `Cc1ccc(S(=O)(=O)C2(C(=O)Nc3ccc(C)c(Cl)c3)CC2)cc1`, the “activity change, negative = inhibition” value is reported as inactive: 0.805%. With `Cc1ccc(CNC(=O)CCS(=O)(=O)c2cc3c(cc2Cl)NC(=O)CO3)cc1` the “activity change, negative = inhibition” value was inactive: 1.6%. With `COc1ccc(N2CCN(CC(O)COc3ccc(C)cc3C)CC2)cc1` (stereo not given) the “activity change, negative = inhibition” value was inactive: -2.2%. In the case of `COc1ccc(N2CCN(c3ncnc4c3cnn4-c3ccc(C)c(Cl)c3)CC2)cc1`, the “activity change, negative = inhibition” value is reported as inactive: 10.3%. With `CC(C)(C)C(=O)NC1(C(F)(F)F)NC(=O)N(c2ccc(F)cc2)C1=O` (stereo not given) the “activity change, negative = inhibition” value was inactive: 2.94%. For `Cc1ccc(Cl)cc1N1CCN(C(=O)CN2C(=O)COc3ccc(S(=O)(=O)N4CCC(C)CC4)cc32)CC1`, the “activity change, negative = inhibition” value was inactive: -0.0585%. For `O=C(NCc1ccc(Cl)cc1)c1ccc(NC(=O)N2CC3CCCN3c3ccccc32)cc1` (stereo not given), the “activity change, negative = inhibition” value was inactive: 3.02%. For `Cc1c(C(=O)NCc2ccccc2Cl)sc2nc(-c3ccc(F)cc3)cn12`, the “activity change, negative = inhibition” value was inactive: -7.91%. In the case of `COc1ccc(CNC(=O)c2ccc(-c3nc(CSc4ccc(C)cc4)c(C)o3)cc2)cc1OC`, the “activity change, negative = inhibition” value is reported as inactive: -0.137%. For `Cc1nn(C(=O)c2ccccc2)c(C)c1S(=O)(=O)N1CCOCC1`, the “activity change, negative = inhibition” value was inactive: 0.666%. In the case of `CCC(=O)N1CCc2cc(S(=O)(=O)NC(C(=O)NCc3ccccc3Cl)C(C)C)ccc21` (stereo not given), the “activity change, negative = inhibition” value is reported as inactive: -2.71%. For `CCOC(=O)C1CCN(C(=O)Cn2c(-c3cccs3)cc3cc(Cl)ccc32)CC1`, the “activity change, negative = inhibition” value was inactive: -9.29%. With `CCOC(=O)CN(Cc1ccccc1)C(C(=O)NC1CCCCC1)c1ccc(C)cc1` (stereo not given) the “activity change, negative = inhibition” value was inactive: -15.5%. For `CCOc1ccccc1CNS(=O)(=O)c1ccc2c(c1)C(C)(C)C(=O)N2C`, the “activity change, negative = inhibition” value was inactive: -1.45%. In the case of `Cc1ccc(C)c(NS(=O)(=O)c2ccc3oc(=O)c4ncn(C)c4c3c2)c1`, the “activity change, negative = inhibition” value is reported as inactive: 0.447%. In the case of `CCn1c(=O)c2cc(C(=O)NCCc3ccc(Cl)cc3)sc2c2ccccc21`, the “activity change, negative = inhibition” value is reported as inactive: 1.55%. With `CCn1c(=O)c2sccc2n2c(CCC(=O)Nc3ccc(C(C)C)cc3)nnc12` the “activity change, negative = inhibition” value was inactive: 0.542%. In the case of `COc1ccc(OCC(=O)NC(Cc2c[nH]c3ccccc23)C(=O)O)cc1` (stereo not given), the “activity change, negative = inhibition” value is reported as inactive: 3.12%. For `CCc1nnc(SC(CC)C(=O)Nc2cc(C)ccc2C)c2cc3occc3n12` (stereo not given), the “activity change, negative = inhibition” value was inactive: -16%. With `COc1cc(C2c3c(oc4ccccc4c3=O)C(=O)N2Cc2ccc(C)cc2)ccc1O` (stereo not given) the “activity change, negative = inhibition” value was inactive: -1.09%. In the case of `CC1CCN(CCCNC(=O)CN2C(=O)CSc3ccc(S(=O)(=O)N4CCOCC4)cc32)CC1`, the “activity change, negative = inhibition” value is reported as inactive: 4.64%. In the case of `COc1ccc(NC(=O)c2cc3c(=O)n(Cc4cccnc4)ccc3nc2C)c(OC)c1`, the “activity change, negative = inhibition” value is reported as inactive: -2.59%. With `Cc1ccc2nc3c(cc(C(=O)NCc4ccco4)c(=N)n3C(C)C)c(=O)n2c1` the “activity change, negative = inhibition” value was inactive: 2.1%. With `Cc1ccc(NC(=O)c2c(C)oc3ncn(CC(C)C)c(=O)c23)nc1` the “activity change, negative = inhibition” value was inactive: 5.5%. With `O=C(Nc1ccc(N2CCOCC2)c(C(=O)O)c1)c1ccc(Br)cc1` the “activity change, negative = inhibition” value was inactive: -9.26%. With `Cc1ccc(CNC(=O)Cn2ccn(-c3ccc(F)cc3)c(=O)c2=O)cc1` the “activity change, negative = inhibition” value was inactive: 4.19%. For `CC(NC(=O)CSc1nc(-c2ccccc2F)nc2cc(=O)[nH]n12)c1nc2ccccc2n1C` (stereo not given), the “activity change, negative = inhibition” value was inactive: 0%. With `Cc1cccc(CN2C(=O)c3ccccc3S(=O)(=O)c3ccc(C(=O)NC4CCCCC4)cc32)c1` the “activity change, negative = inhibition” value was inactive: -22%. For `COc1ccc(OCc2ccc(-c3nc(C#N)c(NCc4cccnc4)o3)o2)cc1`, the “activity change, negative = inhibition” value was inactive: -10.1%. In the case of `CCCC(=O)Nc1ccccc1C(=O)OCc1cc(=O)n2nc(C(C)C)sc2n1`, the “activity change, negative = inhibition” value is reported as inactive: -17.8%. With `Cc1cccc2c(=O)cc(CSc3ccccc3NC(=O)C(C)(C)C)[nH]c12` the “activity change, negative = inhibition” value was inactive: 0%. With `CCC(=O)N1CCCc2cc(S(=O)(=O)N3CCC(C(=O)Nc4ccc(C#N)cc4)CC3)ccc21` the “activity change, negative = inhibition” value was inactive: 1.06%. With `CC(=O)c1cccc(NC(=O)Cn2cc(C(=O)c3cccc(Cl)c3)c(=O)c3ccc(C)nc32)c1` the “activity change, negative = inhibition” value was inactive: -3.05%. In the case of `COc1ccc(OC)c(S(=O)(=O)N2CCN(Cc3nc4ccc(C)cc4o3)CC2)c1`, the “activity change, negative = inhibition” value is reported as inactive: 10.2%. With `CCN(C(=O)Cn1c(=O)n(Cc2ccc3c(c2)OCO3)c(=O)c2ccc(C(=O)NC3CCCCC3)cc21)c1cccc(C)c1` the “activity change, negative = inhibition” value was inactive: 1.52%. In the case of `Cc1cc(C)cc(NC(=O)N2CCN(C(=O)c3nsc4ccccc34)CC2)c1`, the “activity change, negative = inhibition” value is reported as inactive: 8.68%. For `COC(=O)c1ccc(-n2c(/C=C/c3cc(OC)c(OC)c(OC)c3)nc3cc(Cl)ccc3c2=O)cc1`, the “activity change, negative = inhibition” value was inactive: 11.5%. With `CC(=O)Nc1ccc(NC(=O)C(NS(=O)(=O)c2ccc(Br)s2)c2ccccc2)cc1` (stereo not given) the “activity change, negative = inhibition” value was inactive: -13%. In the case of `Cc1ccc(CNC(=O)CCc2nc3cccnc3n2Cc2ccccc2)cc1`, the “activity change, negative = inhibition” value is reported as inactive: 0.935%. In the case of `COc1cc(NC(=O)Cn2nnnc2-c2ccccc2F)cc(OC)c1OC`, the “activity change, negative = inhibition” value is reported as inactive: 0.0067%. For `Cc1ccc(Cn2cc(S(=O)(=O)c3ccc(Cl)cc3)c(=O)c3cc4c(cc32)OCO4)cc1`, the “activity change, negative = inhibition” value was inactive: 4.2%. For `Cc1ccc(OCCSc2nc3ccc(NC(=O)c4ccco4)cc3s2)cc1`, the “activity change, negative = inhibition” value was inactive: -9.53%. For `O=C1CC(=O)Nc2cc(S(=O)(=O)Nc3ccc(F)cc3Cl)ccc2N1`, the “activity change, negative = inhibition” value was inactive: 2.64%. In the case of `CCOc1ccc2nc(N(Cc3cccnc3)C(C)=O)sc2c1`, the “activity change, negative = inhibition” value is reported as inactive: -4.05%. In the case of `COc1ccc(-c2cc3ccc(O)c(CN4CCCCC4C)c3oc2=O)cc1OC` (stereo not given), the “activity change, negative = inhibition” value is reported as inactive: 3.65%. With `CC(=O)N1CCc2cc(S(=O)(=O)NC(Cc3ccccc3)C(=O)NCc3ccccc3Cl)ccc21` (stereo not given) the “activity change, negative = inhibition” value was inactive: 2.14%. For `CCCc1ccc(OC(C)c2nc(-c3ccc(-n4cccc4)cc3)no2)cc1` (stereo not given), the “activity change, negative = inhibition” value was inactive: 3.4%. With `O=C(CCNS(=O)(=O)c1ccc2c(c1)CCN2C(=O)C1CC1)N1CCN(c2cccc(C(F)(F)F)c2)CC1` the “activity change, negative = inhibition” value was inactive: -17.1%. With `CCOC(=O)C1CCN(C(=O)CSc2n[nH]c(-c3ccc(OC)cc3)n2)CC1` the “activity change, negative = inhibition” value was inactive: 0.453%. In the case of `COc1ccccc1N1CCN(C(=O)c2cc3c(-c4ccccc4F)nn(C)c3s2)CC1`, the “activity change, negative = inhibition” value is reported as inactive: 1.42%. For `Cc1ccc(-n2c(=O)c3c(cnn3C)n(CC(=O)Nc3cccc(C)c3)c2=O)cc1`, the “activity change, negative = inhibition” value was inactive: -0.962%. In the case of `Cn1c(=O)n(C)c2cc(N3CCOCC3)c(NS(=O)(=O)c3ccc(Cl)cc3)cc21`, the “activity change, negative = inhibition” value is reported as inactive: -12.8%.
